Source: PubChem BioAssay AID463173 (ICCB-Longwood Screening Facility, Harvard Medical School, 2010)
About 1,700 (3.3%) of roughly 52,000 compounds were called active. No stated cut-off is given here; in the data, active means survival mostly below about 52% (no sharp cut-off); inactive means mostly above about 56%. Some of the results follow.

These molecules were tested on Wild type (assay: S. aureus survival, RN4220 and DeltatarO strains – OD600, teichoic acid synthesis inhibitors, primary screen (AID 463173)). Settings: S. aureus RN4220 wild type/DeltatarO growth, OD600, 18 h, stronger effect = lower value, screened at 18.75 µg/mL (by protocol).

Compound	survival
CCN=C1S/C(=C\c2cn(CC(=O)NCCOC)c3ccccc23)C(=O)N1CC	inactive: 95%
COc1ccc(OCC(=O)Nc2ccc(Cl)c(-c3nc4ncccc4o3)c2)cc1	inactive: 140%
Cc1ccc(NC(=O)CCCn2c(=O)c3cccn3c3ccccc32)cc1Cl	inactive: 91%
CCCc1nn2c(=O)cc(COC(=O)C3CCCCC3)nc2s1	inactive: 72%
COc1ccc(-c2nn(-c3ccc(F)cc3)c3c2cnc2ccc(F)cc23)cc1OC	inactive: 79%
O=C(NCc1nc2ccccc2n1Cc1ccccc1Cl)c1ccccc1	inactive: 90%
COC(=O)c1ccccc1NC(=O)c1oc2ccc3c(c2c1C)C(=O)CC(C)(C)O3	inactive: 91%
N#CCCn1nc(-c2ccccc2)c2ccccc2c1=O	inactive: 115%
COCCn1c(SCC(=O)c2c(C)[nH]c3ccccc23)nc2cc(C(=O)NC(C)C)ccc2c1=O	inactive: 74%
CCOc1ccc(CCNC(=O)Cn2ccc3cc(S(=O)(=O)N4CCCCC4)ccc32)cc1	inactive: 73%
CCOc1ccc2[nH]c(=O)c(CN(CCO)C(=O)Nc3ccc(OC)cc3)cc2c1	inactive: 107%
COc1cccc(CNC(=O)c2ccc3c(c2)N(Cc2ccc(F)cc2Cl)C(=O)c2ccccc2S3)c1	inactive: 19%
Cc1ccc(Cl)cc1NC(=O)Nc1cn(CC(C)C)c(=O)c2ccccc12	inactive: 91%
Cc1ccccc1CN1C(=O)c2ccccc2Sc2ccc(C(=O)NCc3ccccc3)cc21	inactive: 32%
O=C(Nc1ccccc1F)c1nc(SCc2ccccc2F)ncc1Cl	inactive: 92%
CCN(CCCNC(=O)c1cc(Nc2ccc(OC)cc2)nc2ccccc12)c1cccc(C)c1	inactive: 85%
CCOC(=O)c1ccc(NC(=O)CSc2nnc(-c3ccncc3)n2-c2ccccc2)cc1	inactive: 75%
Cc1ccc(-c2nc(S(=O)(=O)c3ccc(C)cc3)c(SCC(=O)c3ccccc3)o2)cc1	inactive: 71%
Cc1cccc(C)c1NC(=O)Cn1c(=O)n(Cc2ccccc2Cl)c(=O)c2cccnc21	inactive: 83%

Compound	survival
CCN(C(=O)CSc1nc2ccccc2n1Cc1ccccc1C#N)c1ccccc1	inactive: 72%
O=C(CN1CCOCC1)NNc1nc(-c2ccccc2)c2cc(Cl)ccc2n1	inactive: 104%
COc1ccc(-n2nc(C(=O)Nc3ccc(C)cn3)c3c4ccccc4n(C)c3c2=O)cc1Cl	inactive: 75%
Cc1ccc(-n2c(=O)[nH]c3cc(C(=O)NCCc4ccccc4)ccc3c2=O)cc1	inactive: 85%
Cc1ccc2c(C)c(C(=O)NCC(c3ccc(Cl)cc3)N3CCOCC3)oc2c1 (stereo unspecified)	inactive: 33%
COc1cc(NC(=O)C2CCN(c3nnc(C)c4c(C)n(-c5ccccc5)nc34)CC2)cc(OC)c1	inactive: 85%
Cc1ccc(NC(=O)NC(C)c2c(-n3cccc3)sc(C)c2C)cc1F (stereo unspecified)	inactive: 74%
Cc1ccc2c(c1)c(=O)c1ccccc1n2CCCC(=O)Nc1ccc(Cl)cc1C	inactive: 74%
CCOC(=O)c1ccccc1NC(=O)c1cnn(-c2ccc(OC)cc2)c1C1CCN(C(=O)OC(C)(C)C)CC1	inactive: 69%
O=c1c2c3c(sc2ncn1CCn1cnc2sc4c(c2c1=O)CCCC4)CCCC3	inactive: 111%
CCOc1ccc(CNC(=O)c2cnc3c(C)cccn3c2=O)cc1	inactive: 73%
O=C(O)CCC(=O)Nc1ccc(N2CCCCC2)c(C(=O)O)c1	inactive: 100%
N#C/C(=C\c1ccccc1F)c1nc2ccccc2c(=O)[nH]1	inactive: 78%
c1ccc(Cc2[nH]nc3ccccc23)cc1	inactive: 99%
O=C(/C=C/c1ccccc1)Nc1nc(-c2cccs2)ns1	inactive: 90%
CC(=O)c1ccc(NC(=O)CN2C(=O)CCc3cc(S(=O)(=O)N4CCC(C)CC4)ccc32)cc1	inactive: 72%
COc1cccc(NC(=O)CCc2nnc3n(CC(C)C)c(=O)c4ccccc4n23)c1	inactive: 92%
Cc1cc(C)cc(NS(=O)(=O)c2ccc3[nH]cc(C(=O)NCc4ccco4)c(=O)c3c2)c1	inactive: 68%
CCCn1ccc2c(OCC(=O)Nc3ccc(C(F)(F)F)cc3)cccc2c1=O	inactive: 78%

Compound	survival
O=C(Nc1ccc(Cl)c(C(F)(F)F)c1)c1cc2nc(-c3ccc4c(c3)OCO4)cc(C(F)(F)F)n2n1	inactive: 82%
COc1ccc(NC(=O)CSc2n[nH]c(-c3ccccc3)n2)cc1Cl	inactive: 79%
O=C(Nc1ccccc1F)c1oc2ccccc2c1NC(=O)C12CC3CC(CC(C3)C1)C2	inactive: 121%
CCOc1ccccc1C(=O)Nc1cc2c(cc1N1CCCCC1)n(C)c(=O)n2C	inactive: 99%
CCC(O)c1nc2ccccc2n1CCOc1cc(C)cc(C)c1 (stereo unspecified)	inactive: 105%
CCOC(=O)c1noc2nc(C)n(CC(=O)Nc3ccc(Br)cc3C)c(=O)c12	inactive: 121%
COC(=O)N1N=C(C)CC1(O)c1ccc(Cl)cc1 (stereo unspecified)	inactive: 129%
CCOc1ccccc1N(CC)C(=O)c1cc2c(=O)n(CC)c3ccccc3c2s1	inactive: 123%
N#CC1=C(N)SC(N)=C(C#N)C1c1cccs1	inactive: 93%
Cc1cc(Nc2cccc(C(F)(F)F)c2)nc2ccc(NC(=O)c3cncc(Br)c3)cc12	inactive: 128%
Cc1ccc(CN(C(=O)c2ccc([N+](=O)[O-])cc2)c2ccccn2)cc1	inactive: 82%
COC(CNS(=O)(=O)c1ccc(S(=O)(=O)NCc2ccccc2)cc1)OC	inactive: 106%
COc1ccc(OC)c(-n2cnc3cc(C(=O)NCCc4ccccc4)ccc32)c1	inactive: 75%
CC(C)OC(=O)c1c(NC(=O)c2cc3nc(-c4ccccc4)cc(C(F)(F)F)n3n2)sc2c1CCCC2	inactive: 101%
Cc1ccc(-c2nnc3ccccc3c2C(=O)Nc2cccc(C(F)(F)F)c2)cc1	inactive: 120%
Cc1ccc(OCC(=O)Nc2ccccc2C(=O)OCc2cc(=O)n3c(C)csc3n2)cc1	inactive: 72%
N#Cc1cc2c(=O)n3ccccc3nc2n(-c2nnc(SCc3ccccc3F)s2)c1=O	inactive: 105%
CC(C(=O)NCc1ccc(Cl)cc1)n1ccc2cc(S(=O)(=O)N3CCCC3)ccc21 (stereo unspecified)	inactive: 53%
